Legend:
Normal Rats [1] = assay: animal or person; conditions: Rattus norvegicus, po, 1 h, 18 hr fasted rats, 1 hr after oral administration; for inhibition in vivo at 10 mg/kg: read-out: Reduction percent (%) of rised plasma glucose level relative to vehicle-treated group, Dose 10 mg/kg, orally, simultaneously with glucose solution (2 g/kg)
Normal Rats [2] = conditions: Dose 10 mg/kg, orally, simultaneously with glucose solution (2 g/kg); 18 hr fasted rats; 1 hr after oral administration

`O=C(O)[C@H](CC(=O)N1CC2CCC1CC2)Cc1ccccc1` [Compound 1, (2S)-2-benzyl-4-(isoquinuclidin-2-yl)-4-oxo-butanoic acid] showed an inhibition in vivo at 10 mg/kg (Normal Rats [1]) of 35%.
`O=C([O-])[C@H](CC(=O)N1CC2CCC1CC2)Cc1ccccc1.[Na+]` [Compound 11] was tested, and the “Reduction percent (%) of rised plasma glucose level relative to vehicle-treated group” value (Normal Rats [2]) was 43%.
In the case of `O=C(OC1CCCCC1)[C@H](CC(=O)N1CC2CCC1CC2)Cc1ccccc1` [Compound 14], the inhibition in vivo at 30 mg/kg (Normal Rats [1]; read-out: Reduction percent (%) of rised plasma glucose level relative to vehicle-treated group, Dose 30 mg/kg, orally, simultaneously with glucose solution (2 g/kg)) is reported as 32%.
`O=C(Oc1ccccc1)[C@H](CC(=O)N1CC2CCC1CC2)Cc1ccccc1` [Compound 15, (2S)-2-benzyl-4-(isoquinuclidin-2-yl)-4-oxo-butanoic acid phenylester] showed an inhibition in vivo at 10 mg/kg (Normal Rats [1]) of 35%.
Work on `COc1ccc(OC(=O)[C@H](CC(=O)N2CC3CCC2CC3)Cc2ccccc2)cc1` [Compound 17, p-methoxyphenyl (2S)-2-benzyl-4-(isoquinuclidine-2-yl)-4-oxo-butylate] yielded an inhibition in vivo at 10 mg/kg (Normal Rats [1]) of 48%.
With `O=C(Oc1ccc(O)cc1)[C@H](CC(=O)N1CC2CCC1CC2)Cc1ccccc1` [Compound 18, p-hydroxy phenyl (2S)-2-benzyl-4-(isoquinuclidine-2-yl)-4-oxo-butyrate] the inhibition in vivo at 10 mg/kg (Normal Rats [1]) was 82%.
For `CSCOC(C(=O)O)[C@H](CC(=O)N1CC2CCC1CC2)Cc1ccccc1` (stereo partly drawn) [Compound 45], the inhibition in vivo at 10 mg/kg (Normal Rats [1]) was 59%.
For `COC(=O)c1ccccc1OC(=O)[C@H](CC(=O)N1CC2CCC1CC2)Cc1ccccc1` [Compound 46, o-methoxycarbonylphenyl (2S)-2-benzyl-4-(isoquinuclidine-2-yl)-4-oxo-butanoate], the inhibition in vivo at 10 mg/kg (Normal Rats [1]) was 88%.
With `O=C(O)[C@H](CCN1CC2CCC1CC2)Cc1ccccc1` [Compound 47] the inhibition in vivo at 10 mg/kg (Normal Rats [1]) was 26%.
`CCOC(=O)c1ccccc1OC(=O)[C@H](CC(=O)N1CC2CCC1CC2)Cc1ccccc1` [Compound 48, o-ethoxycarbonylphenyl (2S)-2-benzyl-4-(isoquinuclidine-2-yl)-4-oxo-butanoate] showed an inhibition in vivo at 10 mg/kg (Normal Rats [1]) of 55%.
Work on `COC(=O)c1ccccc1SC(=O)[C@H](CC(=O)N1CC2CCC1CC2)Cc1ccccc1` [Compound 50, S-(o-methoxycarbonyl)phenyl (2S)-2-benzyl-4-(isoquinuclidine-2-yl)-4-oxothiobutanoate] yielded an inhibition in vivo at 10 mg/kg (Normal Rats [1]) of 66%.
Compound `CN(c1c(O)c(=O)c1=O)[C@H](CC(=O)N1CC2CCC1CC2)Cc1ccccc1` [Compound 52, N-(3-hydroxy-3-cyclobutene-1,2-dione-4-yl)-N-methyl-(1S)-[2-(isoquinuclidin-2-yl)-2-oxo-ethyl]-phenyl ethylamine] has an inhibition in vivo at 10 mg/kg (Normal Rats [1]) of 31%.
